Results as given in PubChem BioAssay AID588453 (National Center for Advancing Translational Sciences (NCATS), 2011).
Several values for one entry are separate records, joined by “and”; a condition that tells them apart may be missing. Equal entries are not always repeated. Out of some 390,000 compounds screened, about 4,000 (1%) were called active. The inconclusive results got no clear call from the source; some entries with a clear call stand among them for comparison. The call rests on the fitted dose curve; in most records, active means well fitted inhibition curve with a large enough effect; inconclusive means small, poorly fitted or top-dose-only effect; inactive means no such curve, though single readings can be large or run the other way. Where the call is inconclusive, the potency comes from a doubtful curve fit.

Molecular target: Thioredoxin reductase 1, cytoplasmic (Rattus norvegicus) (UniProt O89049)
Chain of UniProt O89049 (O89049 whole entry, looked up): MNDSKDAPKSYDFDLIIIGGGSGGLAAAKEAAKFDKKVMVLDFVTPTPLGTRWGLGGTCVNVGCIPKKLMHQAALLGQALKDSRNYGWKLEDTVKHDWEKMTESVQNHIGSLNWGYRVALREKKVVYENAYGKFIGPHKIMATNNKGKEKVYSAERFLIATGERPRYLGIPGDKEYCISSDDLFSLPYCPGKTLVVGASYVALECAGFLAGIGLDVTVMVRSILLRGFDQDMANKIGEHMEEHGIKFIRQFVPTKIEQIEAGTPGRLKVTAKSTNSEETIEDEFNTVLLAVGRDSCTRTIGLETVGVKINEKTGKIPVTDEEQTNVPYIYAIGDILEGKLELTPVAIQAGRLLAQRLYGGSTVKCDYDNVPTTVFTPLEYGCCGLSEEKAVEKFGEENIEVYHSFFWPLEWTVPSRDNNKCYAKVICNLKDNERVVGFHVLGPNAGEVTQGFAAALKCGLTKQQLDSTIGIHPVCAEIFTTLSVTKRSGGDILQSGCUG
Test: qHTS Assay for Inhibitors of Mammalian Selenoprotein Thioredoxin Reductase 1 (TrxR1): qHTS; further: nearly all actives have a fitted effect of over 65% in size
Conditions: recombinant rTrxR1, NADPH fluorescence consumption, selenite substrate; series mostly up to 114 µM
Method in brief: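 Rat TrxR1 (90 nM in the dispensed reagent) was pre-reduced with 400 uM NADPH for 5 min at room temperature, then incubated with compound for 15 min. After 400 uM selenite was added, NADPH fluorescence (Ex 340/Em 450 nm) was followed for 8 min.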
On the % scale 0 is the no-effect control and ±100 the full control effect; potency means the concentration at half of the fitted maximal effect; tags describe the fitted curve by direction and shape.

| Structure (SMILES) | Potency | activity change, negative = inhibition |
| --- | --- | --- |
| COc1cccc2cc(/C(C)=N/Nc3nc(-c4cc(C)ccc4C)cs3)c(=O)oc12 | inconclusive: 14.1 µM [inhibitor, partial curve] |  |
| COc1ccc(OC)c(N2C(=O)CCCC2=O)c1 | inactive |  |
| Cc1ccc2nc(SCC(=O)NC3CCCc4ccccc43)[nH]c2c1 (stereo not drawn) | inactive |  |
| N#C/C(=C/c1ccc(N2CCCCCC2)o1)c1ccc(F)cc1 | active: 5.01 µM |  |
| NC1=NC(=O)C(CC(=O)c2ccc(Cl)cc2)S1 (stereo not drawn) | inconclusive: 56.2 µM [inhibitor, partial curve, poor fit] |  |
| O=C1S/C(=C\c2ccc(N3CCOCC3)o2)C(=O)N1Cc1c(F)cccc1Cl | active: 2.51 µM |  |
| CCOC(=O)c1c(NC(=S)Nc2ccc(Cl)cc2)sc2c1CCN(C)C2 | inconclusive: 28.2 µM [inhibitor, partial curve, poor fit] |  |
| N#C/C(=C\c1ccc(-c2ccc(Cl)c(C(=O)O)c2)o1)c1nc2ccccc2[nH]1 | inactive |  |
| COC(=O)Cn1cc(/C=C/[N+](=O)[O-])c2ccccc21 | inconclusive: 39.8 µM [inhibitor, single point] |  |
| C=CCN1c2ccc(Br)cc2C(=O)CS1(=O)=O | active: 7.08 µM |  |
| NCCSC1CC(=O)N(Cc2ccc(F)cc2)C1=O (stereo not drawn) | inconclusive: 89.1 µM [inhibitor, single point] |  |
| Cc1ccc(/C=C(/C#N)C(=O)NC(C)c2ccccc2)o1 (stereo not drawn) | inconclusive: 15.8 µM [inhibitor, full curve] |  |
| COc1cccc(NC(=O)C2Cc3ccccc3CN2C(=O)c2ccco2)c1 (stereo not drawn) | inconclusive: 79.4 µM [inhibitor, partial curve] |  |
| O=C(CSc1nnc(C2CC2)n1Cc1ccccc1)c1cc2ccccc2o1 | inconclusive: 8.91 µM [inhibitor, full curve] |  |
| Cc1csc(N/N=C/c2ccc(O)c([N+](=O)[O-])c2)n1 | active: 28.2 µM |  |
| CCCN1CNc2c(c(=O)[nH]c(=S)n2Cc2ccc(OC)c(OC)c2)C1 | inconclusive: 89.1 µM [inhibitor, partial curve] |  |
| CCCCCCn1c(-c2cccs2)n[nH]c1=S | inactive |  |
| O=C1C=CC(=Nc2ccc3c(c2)Cc2cc(F)ccc2-3)O1 | active: 3.16 µM |  |
| CCCC(O)(CCC)C(=O)NN(C(=O)CCl)c1cccc(C)c1 | inconclusive: 25.1 µM [inhibitor, single point] |  |
| CCOc1cc(CN2CCSCC2)ccc1O | inconclusive: 12.6 µM [inhibitor, partial curve] |  |
| CCN(CC)C(=O)CSc1nnc(-c2ccco2)n1Cc1ccco1 | inconclusive: 14.1 µM [inhibitor, partial curve, poor fit] |  |
| Cc1[nH]c2ccccc2c1C(=O)CN1CCC(C)CC1 | active: 35.5 µM |  |
| Cc1nc(S(=O)(=O)c2ccc(Cl)cc2)c(N(C)C)o1 | active: 3.98 µM |  |
| Cc1cc(Nc2c(C)n(C)n(-c3ccccc3)c2=O)n2c(nc3ccccc32)c1C#N | active: 35.5 µM |  |

| Structure (SMILES) | Potency | activity change, negative = inhibition |
| --- | --- | --- |
| COc1ccc(S(=O)(=O)NCC(c2ccco2)N2CCN(c3ccccc3F)CC2)cc1C (stereo not drawn) | inactive |  |
| CCc1ccccc1NC(=S)NC1CC2CCC(C1)N2Cc1ccco1 (stereo not drawn) | inconclusive: 8.91 µM [inhibitor, full curve] |  |
| Cc1ccc(-c2nc3c(c(=O)[nH]c(=O)n3Cc3ccccc3)n2C)o1 | active: 31.6 µM |  |
| CN(C)/C=C(\C#N)C(=O)N/N=C(\CC(=O)C(F)(F)F)c1ccco1 | inactive |  |
| O=CC(=O)c1ccc(F)cc1 | inactive |  |
| O=C(Nc1cccc(S(=O)(=O)N2CCCCCC2)c1)c1ccc(Cl)nc1 | inactive |  |
| O=C(NCc1cccnc1)c1ccc(NS(=O)(=O)c2cccc([N+](=O)[O-])c2)cc1 |  | inactive: 6.66% [at 11.4 µM] |
| Cc1ccc(C(N)=S)c(C)c1 | inactive |  |
| Cc1ccc(/C=C/C(=O)OCC(=O)c2ccc3c(c2)NC(=O)CO3)o1 | inconclusive: 89.1 µM [inhibitor, partial curve, poor fit] |  |
| Cn1c(=O)c2c(nc(Sc3ncccn3)n2Cc2ccc(Cl)cc2)n(C)c1=O | inactive |  |
| Cn1c(CSc2nc3ccccc3s2)nnc1SCC(=O)NCCN1CCOCC1 | inconclusive: 12.6 µM [inhibitor, partial curve, poor fit] |  |
| CC1=CCC(C(=O)N/N=C/c2cccs2)C(c2ccc(F)cc2)C1 (stereo not drawn) | inactive |  |
| CCOC(=O)c1ccc(N2C(=O)CC(Sc3nnc(C)s3)C2=O)cc1 (stereo not drawn) | active: 5.62 µM |  |
| CC(C)(CO)Cc1cc(C(C)(C)C)c(O)c(C(C)(C)C)c1 | inconclusive: 23.8 µM [inhibitor, single point] and inconclusive: 39.8 µM [inhibitor, single point] |  |
| O=C(C[n+]1ccccc1Br)c1ccc(I)cc1 | inconclusive: 35.5 µM [inhibitor, partial curve, poor fit] |  |
| Cc1ccc2nc(N/N=C\c3ccc([N+](=O)[O-])o3)nc(-c3ccccc3)c2c1 | inconclusive: 31.6 µM [inhibitor, partial curve, poor fit] |  |
| N#Cc1c(NCCO)ccc([N+](=O)[O-])c1NCCO | inconclusive: 28.2 µM [inhibitor, single point] |  |
| CN1CCc2c(sc3nc(SCC(N)=O)n(-c4ccccc4)c(=O)c23)C1 | inconclusive: 25.1 µM [inhibitor, single point] |  |
| O=C(/C=C/c1ccco1)Nc1ccccn1 | inconclusive: 79.4 µM [inhibitor, single point] |  |
| Cc1cc2ccccc2n1CCNC(=O)c1cccs1 | inactive |  |
| Cc1cccc(-n2c(=O)c3c(c4cc(C)ccc4n3C)n(CC(=O)Nc3ccc(C)c(C)c3)c2=O)c1 | inactive |  |
| CN(C)CCC(=O)N1c2ccccc2Sc2ccc(Cl)cc21 | inactive |  |
| COc1ccc(C2CC(c3cccc(Cl)c3)=NN2c2ccc(S(N)(=O)=O)cc2)cc1 (stereo not drawn) | inconclusive: 100 µM [inhibitor, single point] |  |
| CC(C)(C)C1=C(C#N)C(c2cc3c(cc2Br)OCO3)C(C#N)=C(N)O1 (stereo not drawn) | inconclusive: 17.8 µM [inhibitor, partial curve, poor fit] |  |
